± gives the standard deviation. This is a selection; strong and weak results do not stand in their true shares.
The sequences below were run on MIWI (PIWIL1) piRISC loaded with piRNA #1 (30 nt) (assay: pre-steady-state target cleavage rate (min^-1); MIWI and MILI are mouse PIWI proteins and EfPiwi is from a freshwater sponge; tags in brackets are library labels; higher = faster piRNA-guided slicing of the target). Settings: guide: piRNA #1 5'p-UGAGGUAGUAGGUUGUAUAGUAUCCAGAGG; auxiliary factor: 500 nM mouse GTSF1.
In short: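 In HEPES–potassium acetate buffer at 33 °C, […] transcribed, DNA-blocked target RNA library was mixed with 1 nM active affinity-purified piRISC carrying one synthetic guide, with or without 500 nM GTSF1 partner protein, for 0–8 or 0–960 min. Uncleaved targets were sequenced and normalised to depth and to weakly complementary targets; three trials were pooled and k3 was capped at 0.0001 min^-1. The pre-steady-state cleavage rate followed from a burst-and-steady-state fit.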
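Further: 1 nM active piRISC with 0.1 nM target library at 33 °C single turnover.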

Row | Sequence | pre-steady-state target cleavage rate
1 | GGAGUGGAAACUAUACAACCUUCUACCUCA | 0.594 ± 0.031
2 | GGAGACCAUACUAUAUAACCUACUACCUCA | 1.55 ± 0.1
3 | GGAGACCUUACUAUACAAUCUACUACCUCA | 0.358 ± 0.021
4 | GGAGACGAUAGAAUACAACCUACUACCUCA | 0.216 ± 0.032
5 | GGAGACGAUCUAUACAACCUACUACCUCA | 1.43 ± 0.11
6 | GCACUGGAUACUAUACAUCCUACUACCUCA | 1.88 ± 0.096
7 | GGAGAGGAUUCAAUACAACCUACUACCUCA | 0.735 ± 0.05
8 | GGAGACGAUACUAUACUACCUUCUACCUCA | 0.3 ± 0.021
9 | GGAGACCUAUUUAUACAACCUACUACCUCA | 0.332 ± 0.046
10 | GGAGACCUAACUAGUACAACCUACUACCUCA | 0.28 ± 0.046
11 | CCUCUCGAUUCUAUACAACCUACUACCUCA | 2.25 ± 0.15
12 | GGUCAGGAUACUAUACAACCUACUACGUCA | 0.512 ± 0.053
13 | GGUCUGGAAACUAUACAACCUAGUACCUCA | 0.484 ± 0.077
14 | GGUCUGGUUACAAUACAACCUACUACCUCA | 1.59 ± 0.12
15 | GGAGACCUAACUAUACUACCUUCUACCUCA | 0.00903 ± 0.0034
16 | GGAGACCUUACUAUACAACCUACUUGGUCA | 0.0055 ± 0.0035
17 | GCUCUGGAUACUAUACAAGGUACUACCUCA | 0.488 ± 0.036
18 | GGAGAGGAUACUUUACAACCAACUACCUCA | 0.101 ± 0.0092
19 | CUCUGGAUACUAUACAACCUACUACCUCA | 2.17 ± 0.14
20 | GGACUGGAUACUAUACAACCUAGAUCCUCA | 0.00693 ± 0.0025

Row | Sequence | pre-steady-state target cleavage rate
21 | GGAGAGGAUACUAUACAACCUACUAACUCA | 0.363 ± 0.044
22 | GGUCUGGAUACUACUACAACCUACUACCUCA | 1.53 ± 0.11
23 | GGUCUGGAUACUAUACAACCUACUACCAGA | 0.084 ± 0.017
24 | GGAGACCUAUGAGUACAACCUACUACCUCA | 0.00572 ± 0.0029
25 | GCUCUGGAUACUAUACAACUUACUACCUCA | 0.622 ± 0.023
26 | GGUCUGGAUACUCUACAACCUACUACCUCA | 1.56 ± 0.082
27 | GGAGUGGAUACUAUACAACCUACUACCUA | 0.47 ± 0.075
28 | GGUCUGGAUACUAUACAACCUACUACCUA | 0.685 ± 0.11
29 | GGAGUGGAUACUAUACAACCAAGUACCUCA | 0.0356 ± 0.0049
30 | GGUCUGGAUACUAUACAACCUACUACCUCG [g2:g28:cont:t1G] | 1.12 ± 0.083
31 | GGAGAGGUAUACUAUACAACCUACUACCUCA | 0.49 ± 0.045
32 | GGAGACCUAUGAUAUCAACGUACAACCUCA | < 0.0001
33 | GGAGACCUUACUAUACAAGGUACUACCUCA | 0.136 ± 0.023
34 | GGAGUGGAUACUAUAGUUCCUACUACCUCA | 0.158 ± 0.025
35 | GGUCUGGAUACUAUGCAACCUACUACCUCA | 1.73 ± 0.12
36 | GGACUGGAUACAAUACAACGUACUACCUCA | 0.743 ± 0.063
37 | GGACUGGAUACUAUACAACUACUACCUCA | 0.541 ± 0.05
38 | GGAGACCUAACUAUUCAACCUACUACCUGA | 0.193 ± 0.042
39 | GGACUGGAUACAAUACAACCUACAACCUCA | 0.308 ± 0.035
40 | GGAGACCUAUCUAUACAACCUAACUACCUCA | 0.0063 ± 0.0018

Reference: the supplement of paper PMC10338343
